Data on two molecules can be found in US20200148733A1 (Pieris, published 2020).

The target of the assay is T1, lipocalin mutein SEQ ID NO: 5.
T1 construct: Human tear lipocalin (Tlc) mutein specific for IL-17A; also called Tlc mutein
Description: solution competition ELISA: 0.5 nM SEQ ID NO: 5 pre-incubated with varied ligand, free mutein captured on immobilised biotinylated hIL-17A (competitor). The protocol:
In the following detailed experimental protocol, incubation and washing steps were performed as described above in the competition ELISA protocol. A 384-well plate suitable for fluorescence measurements (Greiner FLUOTRAC™ 600, black flat bottom, high-binding) was coated with 20 μl of Neutravidin at a concentration of 5 μg/ml in PBS over night at 4° C. After washing, the Neutravidin-coated wells were blocked with 100 μl blocking buffer (PBS-T/BSA) for 1h at room temperature.
In general terms: ELISA stands for enzyme-linked immunosorbent assay.

T1 sequence (chain, as listed by the source): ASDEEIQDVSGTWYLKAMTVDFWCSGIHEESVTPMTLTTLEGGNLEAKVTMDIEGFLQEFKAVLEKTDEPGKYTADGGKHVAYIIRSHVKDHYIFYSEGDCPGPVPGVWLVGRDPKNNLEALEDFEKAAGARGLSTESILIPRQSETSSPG

B1: human IL-17 A/F heterodimer (ligand)
chain 1: [sequence of about 150 residues omitted]
chain 2: RKIPKVGHTFFQKPESCPPVPGGSMKLDIGIINENQRVSMSRNIESRSTSPWNYTVTWDPNRYPSEVVQAQCRNLGCINAQGKEDISMNSVPIQQETLVVRRKHQGCSVSFQLEKVLVTVGCTCVTPVIHHVQ
notes: Heterodimer of IL-17A and IL-17F; also called hIL-17 A/F; hIL-17 AF
The term IC50 denotes the concentration needed to halve the response being measured. Low values mean inhibition by little substance, high ones a need for much substance. As for B1, the IC50 is 0.4 nM.

B2: human IL-17A (ligand)
chain: not shown
notes: also called hIL-17A; IL-17 A/A
As for B2, the IC50 was 0.4 nM.
